Data from publication PMC9876986, “Direct cell extraction of membrane proteins for structure–function analysis” (Scientific Reports, 2023).

Molecular target: the molecule itself
Test: cryo-EM structure; Salipro-mPANX1 nanoparticles, 2.5 mg/ml, with 0.5 mM Fos-Choline 8; C7 symmetry; 3.1 Å

B1: mouse pannexin1 (mPANX1), tags cleaved off, in Salipro (saposin A-lipid) nanoparticles (natural protein)
chain: not shown
notes: construct FLAG-3C-mPANX1-3C-GFP-StrepII, cut at both PreScission sites; The particle also holds saposin A and endogenous lipids of the cells; also called Salipro-mPANX1; source: Expi293 cells, transiently transfected; not shown: FLAG, N-terminal, cleaved; GFP, C-terminal, cleaved; Twin Strep, C-terminal, cleaved
In the case of B1, the “stoichiometry N” value is reported as 7.
